{
  "source": "patent CN113583116A",
  "binders": {"B1": {"name": "小鼠单克隆抗体36H6 (antibody, V domains shown)", "VH": "EVQLQQSGPELVNPGASVKISCKTSGYTFTEYTMHWVKQSHGKSLEWIGGINPNNGDTIYNQKFKGKATLTVDKSSSTAYMELRSLTSEDSAVFYCAREGDYYVSSYGYWGQGTTLTVSS", "VL": "[not shown - about 120 residues]"}},
  "biological_target": "SARS-CoV-2 受体结合域RBD蛋白 RBD-His (SARS-CoV-2)",
  "data": [
    {"binder": "B1", "values": [
      {"measurement": "Kd", "value": 5.84, "unit": "nM"}
    ]}
  ]
}
